Source: the supplement of paper PMC12217912
This is one part of the list. Sequences were assembled here from the parent chain. Inactive controls read about 0.05.

B1: TEV protease; numbered along this chain (parent)
chain: MGESLFKGPRDYNPISSSICHLTNESDGHTTSLYGIGFGPFIITNKHLFRRNNGTLVVQSLHGVFKVKDTTTLQQHLVDGRDMIIIRMPKDFPPFPQKLKFREPQREERICLVTTNFQTKSMSSMVSDTSCTFPSGDGIFWKHWIQTKDGQCGSPLVSTRDGFIVGIHSASNFTNTNNYFTSVPKNFMELLTNQEAQQWVSGWRLNADSVLWGGHKVFMVKPEEPFQPVKEATQL

Variants of: B1
Experiment: raw area under fraction-flipped curve 0-4 h after induction (AUC4h, not background-subtracted), DNA-recorder readout of cleavage of the substrate (dimensionless); higher = more cleavage of the substrate by the protease variant
Conditions: temperature: 34 °C; time window: 0-4 h after rhamnose induction
Procedure: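 In vivo DNA recorder in E. coli TOP10(DE3) ΔrhaA at 34 °C. Each TEVp single-site mutant (parent TEVp 0) is paired with a single-site variant of the 7-mer TEVs (canonical ENLYFQ|S). The substrate sits between flexible linkers in a Bxb1-sfGFP-TEVs-SsrA fusion, so cleavage stabilises Bxb1 and speeds flipping of a recombination array, read by NGS. The value is the raw area under the fraction-flipped curve over 0-4 h after rhamnose induction (AUC4h), with ≥20 reads per time point. It is not background-subtracted; inactive controls average about 0.047.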
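Further: Bxb1 expression induced with 0.2% (w/v) L-rhamnose at OD600 near 0.5, cultures sampled hourly, flipped fraction per protease–substrate barcode pair counted by paired-end Illumina sequencing.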

Variant | area with substrate ENLYFAS | area with substrate ENLYFCS | area with substrate ENLYFDS | area with substrate ENLYFES | area with substrate ENLYFFS | area with substrate ENLYFGS | area with substrate ENLYFIS | area with substrate ENLYFKS | area with substrate ENLYFMS | area with substrate ENLYFPS | area with substrate ENLYFRS | area with substrate ENLYFTS | area with substrate ENLYFVS | area with substrate ENLYFWS | area with substrate ENLYFYS | area with substrate ENLYFLS | area with substrate ENLYFNS | area with substrate ENLYFSS | area with substrate ENLYFHS
N45R | 0.057 | 0.0534 | 0.057 | 0.0787 | 0.0629 | 0.0663 | 0.0582 | 0.0498 | 0.0641 | 0.0634 | 0.0539 | 0.0604 | 0.054 | 0.0721 | 0.0544 | – | – | – | –
G54S | 0.0674 | 0.0441 | 0.0617 | 0.0611 | 0.0641 | – | 0.0442 | 0.0674 | 0.0631 | 0.0593 | 0.0556 | 0.0524 | 0.0465 | – | – | 0.0539 | 0.0747 | 0.024 | –
G39C | 0.0427 | 0.0375 | 0.0418 | 0.0376 | 0.0461 | 0.0399 | 0.0419 | 0.0479 | 0.0476 | 0.0502 | 0.0183 | 0.0488 | – | 0.0465 | 0.0417 | 0.0457 | 0.0457 | 0.0438 | –
G39N | 0.0515 | 0.0415 | – | 0.037 | 0.0374 | – | 0.0359 | 0.0412 | 0.0566 | 0.0389 | – | 0.0197 | 0.0205 | 0.0335 | 0.0333 | 0.0257 | 0.0336 | – | –
H62R | 0.0388 | – | 0.0465 | – | 0.0684 | 0.0507 | 0.052 | – | 0.0786 | 0.0619 | – | – | – | – | – | 0.0664 | 0.0648 | – | –
H62S | 0.059 | 0.0646 | 0.0659 | 0.0505 | 0.0998 | – | 0.0558 | 0.0643 | 0.0654 | 0.0386 | 0.0549 | 0.0728 | 0.0628 | 0.0667 | 0.0497 | 0.0402 | 0.0752 | 0.0471 | –
T44E | 0.0329 | – | – | 0.0506 | 0.0374 | – | 0.0428 | – | 0.0379 | 0.0407 | 0.0379 | – | – | 0.036 | – | 0.048 | 0.0288 | – | –
T44G | 0.0503 | – | – | – | 0.0689 | – | 0.0537 | 0.0428 | 0.0564 | 0.0523 | 0.0548 | 0.0579 | 0.0506 | – | 0.0691 | 0.0955 | 0.0609 | 0.0591 | 0.0298
T44H | 0.0377 | – | 0.0311 | 0.0483 | 0.0567 | 0.0415 | 0.039 | 0.039 | 0.053 | – | 0.0393 | 0.0417 | 0.0545 | – | 0.0481 | – | 0.0519 | 0.0567 | –
D82G | 0.0338 | – | – | 0.0682 | 0.0614 | 0.0283 | 0.0553 | 0.0959 | 0.0607 | 0.0499 | 0.0607 | 0.0602 | – | 0.0453 | – | 0.0619 | 0.0592 | 0.0519 | –
I86D | 0.0454 | – | – | – | 0.0383 | – | 0.0331 | 0.043 | 0.0399 | – | 0.0224 | 0.0278 | – | 0.0559 | – | – | – | – | –
I86W | 0.0513 | 0.0396 | 0.063 | 0.0555 | 0.0678 | – | 0.0485 | – | 0.0446 | 0.0547 | – | 0.0625 | – | 0.0598 | 0.0323 | 0.0743 | 0.0548 | – | 0.0526
G37M | 0.0549 | 0.0505 | 0.0368 | 0.0564 | – | 0.045 | 0.0537 | 0.0558 | 0.0668 | 0.0683 | 0.0521 | – | 0.0588 | 0.0488 | – | – | 0.051 | – | –
G37V | 0.0538 | 0.0799 | 0.0528 | 0.057 | 0.0533 | – | 0.0656 | 0.0437 | 0.0602 | 0.0582 | 0.0597 | 0.0546 | 0.0372 | 0.0633 | 0.0595 | 0.0427 | 0.0539 | 0.0384 | –
K46V | 0.0627 | – | 0.066 | 0.0548 | – | – | 0.0543 | – | 0.0527 | 0.0491 | 0.0478 | 0.0422 | 0.0644 | 0.0589 | 0.0607 | – | 0.0562 | – | –
K46I | 0.0571 | 0.0613 | 0.0598 | 0.0655 | 0.0709 | – | 0.048 | 0.073 | – | 0.0583 | – | 0.061 | – | 0.0488 | 0.0597 | 0.0539 | 0.0785 | – | –
K46W | 0.0503 | 0.0596 | – | 0.0618 | 0.0617 | – | 0.0476 | 0.0715 | 0.045 | 0.0561 | – | 0.054 | 0.05 | 0.063 | 0.0525 | – | 0.0651 | 0.0488 | 0.0607
I43W | 0.0295 | 0.037 | – | 0.0404 | 0.0479 | – | 0.0533 | 0.0635 | 0.0388 | 0.0518 | 0.043 | – | 0.0627 | 0.0347 | – | – | 0.0501 | – | –
R81F | 0.0625 | 0.0601 | – | 0.0609 | – | 0.0582 | 0.0657 | 0.0543 | – | 0.0504 | 0.0634 | 0.0592 | – | 0.0607 | 0.0631 | 0.0576 | 0.0533 | – | 0.0738
R81M | 0.0591 | 0.0538 | – | 0.0705 | 0.0684 | 0.0758 | 0.0596 | 0.0689 | 0.057 | 0.0684 | – | 0.0552 | 0.0667 | 0.0556 | – | – | 0.0677 | – | –
G35W | 0.0513 | – | 0.0483 | 0.0416 | 0.0462 | – | 0.0538 | – | 0.0472 | 0.0435 | 0.0586 | – | – | 0.0483 | 0.0441 | – | 0.0547 | – | –
F38T | 0.0666 | 0.0504 | 0.0604 | 0.06 | 0.0606 | 0.0592 | 0.0529 | 0.0578 | 0.0489 | 0.0568 | 0.05 | 0.0631 | 0.0424 | 0.057 | 0.0609 | 0.0516 | 0.0553 | 0.0595 | 0.0569
F38N | 0.0546 | – | – | 0.0296 | – | – | 0.0544 | 0.0536 | 0.0396 | 0.0553 | 0.0453 | 0.034 | – | – | 0.044 | – | 0.0587 | – | 0.0504
L77E | 0.0648 | – | – | 0.0538 | 0.0604 | 0.0998 | 0.0593 | 0.0583 | 0.061 | 0.058 | 0.0524 | 0.0741 | – | – | – | – | 0.0635 | 0.06 | –
L77G | 0.0472 | – | 0.0476 | 0.0517 | 0.091 | – | 0.0518 | 0.0712 | 0.0575 | 0.0628 | 0.0674 | – | – | – | – | – | 0.0528 | 0.0442 | 0.0687
I42Q | 0.0406 | – | – | 0.0508 | 0.0459 | – | 0.0472 | 0.0724 | 0.0413 | – | 0.0429 | – | – | 0.0466 | – | – | – | – | –
